Measured values as given in paper PMC7819943, “Rice protein-binding microarrays: a tool to detect cis-acting elements near promoter regions in rice”.
This is one part of the list.

Target: T1, OsWOX13 (Oryza sativa, UniProt Q5QMM3 1-267)
T1 sequence: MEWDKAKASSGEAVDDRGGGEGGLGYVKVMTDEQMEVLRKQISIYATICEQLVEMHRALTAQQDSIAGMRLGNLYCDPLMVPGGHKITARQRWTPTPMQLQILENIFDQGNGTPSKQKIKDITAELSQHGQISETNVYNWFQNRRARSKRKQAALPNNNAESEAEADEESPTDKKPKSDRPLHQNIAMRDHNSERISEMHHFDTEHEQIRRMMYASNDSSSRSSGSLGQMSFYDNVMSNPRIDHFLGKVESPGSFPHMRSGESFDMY
Experiment: protein-binding microarray (RPBM); PBS, 2% BSA, 51.3 ng/ul salmon testes DNA, 50 uM zinc acetate, 200 nM TF, 25 C, 1 h; high values mean tight binding
Settings: protein: recombinant; tags: N-terminal polyhistidine and DsRed monomer fusion (pET32a); label: CyDye5-dUTP incorporated in the synthesized complementary strand; 3' TTTTT single-stranded linker to array surface; dsDNA, one strand shown
Summary of the method: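 Per-feature fluorescence intensity (arbitrary units), read on an Axon 4000B scanner, is the binding signal. Transcription factors carrying an N-terminal polyhistidine tag and DsRed fusion were expressed in E. coli BL21-CodonPlus and purified on Ni–NTA. A custom Agilent array, made double-stranded by primer extension with Cy5-dUTP and blocked with 2% BSA, was incubated with 200 nM protein in PBS, 2% BSA, salmon testes DNA and 50 µM zinc acetate at 25 °C for 1 h and then washed.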

Sequence	binding signal
CCAGCAATCCCAATCCCAGAAATTGAATGAATAGTCTTCTCGGAGTCACCTAGTGCAG	4070 fluorescence intensity (a.u.)
CACAGTCCTAATTTCTATAGAACTAATCTACTCGTCCGTCCGGAGTCACCTAGTGCAG	3270 fluorescence intensity (a.u.)
GTATTTGTATGATTGTATCCGTATCTGTACCATCCTAATGCGGAGTCACCTAGTGCAG	3250 fluorescence intensity (a.u.)
ACCCACCCTTCAATTAGCCTGTGAATTACTACTTTCTAATCGGAGTCACCTAGTGCAG	7460 fluorescence intensity (a.u.)
AGTAATTAAAATTTAAGAGGCAAAATTACGTGTGAATTTGCGGAGTCACCTAGTGCAG	19600 fluorescence intensity (a.u.)
TTCATATAATTTATAAGGGACATAATGTAATCACCCTATACGGAGTCACCTAGTGCAG	10300 fluorescence intensity (a.u.)
TGTGATTGTCGAAGGAAGGCAGCAAAACGGTTCGAGGGTGCGGAGTCACCTAGTGCAG	25300 fluorescence intensity (a.u.)
ACTATTTGTCAATCATACTTCTTTCATGATATTCATTTTGCGGAGTCACCTAGTGCAG	23500 fluorescence intensity (a.u.)
ACCAACTAATTGCGCAATCTAACACTCGATCGAGGGCTGTCGGAGTCACCTAGTGCAG	28900 fluorescence intensity (a.u.)
ATTTCTGATTGGTGAGATGGGTGATTCGGTAGGCCATTGGCGGAGTCACCTAGTGCAG	40100 fluorescence intensity (a.u.)
CTGATGACAATACTGAACAGTCACTCAGGGAAGACCGTGGCGGAGTCACCTAGTGCAG	3800 fluorescence intensity (a.u.)
AATATATGATTAGTTGAGTATTAATTATTTTAAATTTCAACGGAGTCACCTAGTGCAG	21900 fluorescence intensity (a.u.)
AAAATTATGGATTGGATGATTAATCACTGATAGGTAGTACCGGAGTCACCTAGTGCAG	56900 fluorescence intensity (a.u.)
ACAAATTGGTCACTGGCTGAATAGTTTCTACATCAGTTAACGGAGTCACCTAGTGCAG	6570 fluorescence intensity (a.u.)
GAACTAATATACTTTCATCAATTTAACAAATAACAAATTCCGGAGTCACCTAGTGCAG	3600 fluorescence intensity (a.u.)
TTAAATGACTAATAATGGACTTTCTCCTAATCAAATCGTGCGGAGTCACCTAGTGCAG	20300 fluorescence intensity (a.u.)
TGATTAAAATTGACATTAAAATTATAGTTTTGTGATGACTCGGAGTCACCTAGTGCAG	19100 fluorescence intensity (a.u.)
GTCTTAATTGTTCCTCATGTGTTTGTATGTTGTCTGGATTCGGAGTCACCTAGTGCAG	36100 fluorescence intensity (a.u.)
CCCTAATTCCATTCGATTTCATTCGTACTTGTGTTGTTCGCGGAGTCACCTAGTGCAG	7030 fluorescence intensity (a.u.)
CTAATTTAAATTTGTCTCTTTTCTACCCTCAACCATCATTCGGAGTCACCTAGTGCAG	27200 fluorescence intensity (a.u.)
TTAATGATTTTATTTGAATGGATCAGGGTCCAATTTGCTGCGGAGTCACCTAGTGCAG	24500 fluorescence intensity (a.u.)

Sequence	binding signal
AGTTTGTAATAATTAAAACTCAATTAATCACATGTTATTACGGAGTCACCTAGTGCAG	11600 fluorescence intensity (a.u.)
GTAGATTTGTGGACAGGAAATGCAGCTCCTGAACTCATGGCGGAGTCACCTAGTGCAG	6520 fluorescence intensity (a.u.)
AGCAAAGGAGCAATTAACTGACAAGAGCCAGCGCGGCGTGCGGAGTCACCTAGTGCAG	3500 fluorescence intensity (a.u.)
GTCTGATAGATCCATTACGAGGGTCAACTTTGAATCAAAGCGGAGTCACCTAGTGCAG	19900 fluorescence intensity (a.u.)
AGCAATTAAGAAACACTATAATGGACACTAAATTACCATACGGAGTCACCTAGTGCAG	4070 fluorescence intensity (a.u.)
GCCTTAATATGAACCAATTAAAAGGAGGGCTAGCTTGATGCGGAGTCACCTAGTGCAG	9470 fluorescence intensity (a.u.)
CACAAAATTGTTTTATGCAAACATTTATTTGTAAGACATCCGGAGTCACCTAGTGCAG	3790 fluorescence intensity (a.u.)
ACTCCCTATCAATTTTCATCTCCTCTACTAAATAAGATATCGGAGTCACCTAGTGCAG	7250 fluorescence intensity (a.u.)
TGGGAGATAAATTGAACTTATTCCTATATAGATCAGCTTCCGGAGTCACCTAGTGCAG	6420 fluorescence intensity (a.u.)
TTTTCATAATTTAACTCATAAAATCAAATAAGTGAACTTTCGGAGTCACCTAGTGCAG	3740 fluorescence intensity (a.u.)
CAAAATTTGAATTTTGAAATTAATTTTAGAGTTGATTTGGCGGAGTCACCTAGTGCAG	33400 fluorescence intensity (a.u.)
CTACCGCTAATTTTACATGGGCAATAACTACGAATAAGTTCGGAGTCACCTAGTGCAG	3700 fluorescence intensity (a.u.)
TCTTGATTCCCAAATCATTCCGTGCTCTTCACCTAATGATCGGAGTCACCTAGTGCAG	5220 fluorescence intensity (a.u.)
AATTAGTGATACTAGAATTAATTACTGTGCGCACTGCCGGCGGAGTCACCTAGTGCAG	4830 fluorescence intensity (a.u.)
CTAATTGAAGTTGATATTTTACATCCCTTGGTCATGAACTCGGAGTCACCTAGTGCAG	27100 fluorescence intensity (a.u.)
CCATCACATCCGTTGGCCTAATTGATTTGTGAAGCATCAACGGAGTCACCTAGTGCAG	4240 fluorescence intensity (a.u.)
GTTGTTGATGTACTGATTATATGTACATCGATGTAACTGTCGGAGTCACCTAGTGCAG	11300 fluorescence intensity (a.u.)
TCAAATCACTGCAACATTAGATCTATAAATAGTGAAGCAGCGGAGTCACCTAGTGCAG	4870 fluorescence intensity (a.u.)
TATTCTAATTTTGGTCGTTATCCAAACGTTTCCATGAACACGGAGTCACCTAGTGCAG	4160 fluorescence intensity (a.u.)
CTAAATAACAAAGATTTCTTATTGGTGACAACTGACAAGCCGGAGTCACCTAGTGCAG	4060 fluorescence intensity (a.u.)
ATGATCTTTCTAAATCCAATCAAATTTCATAATGGTACTACGGAGTCACCTAGTGCAG	6080 fluorescence intensity (a.u.)
